Experimental data from PubChem BioAssay AID1234 (University of Pittsburgh Molecular Library Screening Center, 2008).
This is one part of the list. These are further read-outs of the screen, such as a control signal, another cell line or another target. No call is given for them.

test: DTT-dependent H2O2 generation by redox cyclers, dose response, artefact control for MLSCN library redox annotation, biochemical, 10-point concentration response, NIH library profiling (AID 1234); conditions: DTT-dependent redox cycling H2O2, phenol red-HRP absorbance, at 50 µM, stronger effect = higher value

Compound	activation
NC(=O)C1CCN(C2=C(Cl)C(=O)c3ccccc3C2=O)CC1	-1.77%
Cc1cc(C)c(S(=O)(=O)/N=C2/C=C(Sc3ncn[nH]3)C(=O)c3ccccc32)cc1C	115%
O=S(=O)(Nc1c(S(=O)(=O)c2ccccc2)c2nc3ccccc3nc2n1C1CCCCC1)c1ccccc1	118%
CCOC(=O)N1CCN(c2cc(NCCC(=O)O)c3c4c(onc24)-c2ccccc2C3=O)CC1	-1%
CCCCn1c(NS(=O)(=O)c2ccc(C)cc2)c(S(=O)(=O)c2ccccc2)c2nc3ccccc3nc21	127%
CC(=O)C(C(C)=O)C1(O)C(=O)c2ccccc2C1=O	-1.5%
CC(NC(=O)COC(=O)c1ccc([N+](=O)[O-])s1)c1ccccc1 (centres undefined)	-0.94%
Cc1ccc(C(=O)c2c(C)oc3c2C(=O)C(=O)c2ccccc2-3)cc1	-0.96%
O=C1C=C(N(CCO)Cc2ccccc2)c2ccccc2C1=O	116%
Nc1cc2nsnc2cc1Br	0.13%
O=C1C=C(NCCN2CCOCC2)C(=O)c2cnccc21	-0.13%
CCOC(=O)c1c2c(n(C)c1COC)C(=O)C(=O)c1ccc(Br)cc1-2	135%
COc1ccc(CN2C(=O)c3cccnc3C2O)cc1 (centres undefined)	-0.04%
O=C1C(=O)c2ccc(-c3ccccc3)cc2-c2ccccc21	108%
CC(=O)N(/N=C1\Sc2ccccc2C1=O)c1ccccc1C	130%
C=CCn1c(Cc2ccc(OC)cc2)nnc1SCC(=O)NCCc1ccccc1	-1.19%
O=C(O)c1ccc(NC2=C/C(=N/S(=O)(=O)c3ccccc3)c3ccccc3C2=O)cc1	127%
CCOc1ccc2c(=O)c(Oc3ccccc3)c(C)oc2c1	-0.92%
COc1cccc(NC(=O)C(OC(=O)c2ccc([N+](=O)[O-])o2)c2ccccc2)c1 (centres undefined)	-1.08%
COc1cccc(Oc2cncnc2-c2ccc(OC)cc2O)c1	-1.32%
CC(=O)N(/N=C1\Sc2ccccc2C1=O)c1cccc(C)c1	122%
Cc1oc2c(c1C(=O)c1ccccc1)C(=O)C(=O)c1ccccc1-2	-1.56%
Cc1oc2c(c1C(=O)c1ccc(Cl)cc1)C(=O)C(=O)c1ccccc1-2	78.8%
O=C(NN=C1CCCC1)c1n[nH]c2c1CCCC2	-1.68%
